PubChem BioAssay AID1963576 (National Center for Advancing Translational Sciences (NCATS), 2024)
In all, about 46,000 compounds went through this assay and about 60 (0.1%) were called active. About 3% were inconclusive and are not listed. Calls come from the whole dose curve; as a rule, active = well fitted inhibition curve with a large enough effect; inconclusive = small, poorly fitted or top-dose-only effect; inactive = no such curve, though single readings can be large or run the other way. The list shows a part of the results.

Assay: Primary qHTS assay for Inhibitors of ovarian cancer metastasis using an organotypic tumor microenvironment (TME) model.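 For activity change, negative = inhibition: plate controls were DMSO wells for no effect and tomatine positive control wells for full effect.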 Note: nearly all actives have a fitted effect of over 65% in size.
Conditions: SKOV3ip1-GFP adhesion/invasion on 3D omental model, fluorescence; series mostly up to 45.8 µM; activity change, negative = inhibition: at the top concentration
Method in brief: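 A 3D layer of primary human omental fibroblasts, mesothelial cells, fibronectin and collagen I, grown 48 hr, received SKOV3ip1-GFP cells in serum-free medium plus compounds at 0.36-46 umol/L. After 2 hr RT and 16 hr 37 C, fixed adherent GFP cells were counted; normalized to DMSO and tomatine.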

Activity change, negative = inhibition, inactive:
Cc1cccc(-c2nc3c4ccccc4nc(NCc4ccc(F)cc4)n3n2)c1 0.638%
COc1cccc(OC(=O)CSc2nnc(-c3ccc4c(c3)OCO4)o2)c1 -5.08%
CC(C)CCN(C(=O)Nc1ccc(Cl)c(Cl)c1)C(C)c1cccs1 (stereo unspecified) -8.24%
COc1ccccc1OCC(=O)Nc1c(C(=O)c2ccc(F)cc2)oc2ccccc12 -9.46%
CSc1ncc(C(=O)N2CCN(c3cccc(C(F)(F)F)c3)CC2)c(C)n1 -4.71%
Cc1ccc2c(c1)N(CCCC(=O)NCc1cccc(F)c1)C(=O)CO2 13.6%
COc1ccc(C2N3CC4(C)CN2CC(c2ccccc2)(C3)C4=O)cc1OC (stereo unspecified) 6.25%
COc1ccc(C2CC(=O)c3cc(-c4nc(-c5cccc([N+](=O)[O-])c5)cs4)c(=O)n(-c4ccc(OC)cc4)c3C2)cc1 (stereo unspecified) 12.2%
COc1cccc(-n2c(=O)c3sc4ccccc4c3n(CC(=O)Nc3ccccc3C)c2=O)c1 -6.19%
CCCN(CCC)CCCNC(=O)c1cc2c(=O)[nH]c3ccccc3c2n1C -23.1%
N#Cc1ccc(NC(=O)Nc2ccccc2Br)c2n[nH]nc12 45.1%
Cc1ccc(NC(=O)C2CCN(S(=O)(=O)c3cc(-c4noc(C)n4)ccc3C)CC2)c(C)c1 -2.21%
CCOC(=O)c1ccccc1NC(=O)CCc1nc(-c2ccc(C)cc2)no1 3.89%
CC(CNC(=O)CCS(=O)(=O)c1cc2c(cc1Cl)NC(=O)CO2)c1ccccc1 (stereo unspecified) -7.96%
CCCCOc1ccc(Cn2c(=O)sc3ccccc32)cc1 1.46%
COc1ccc(N2CCN(c3csc4ccccc4c3=O)CC2)cc1 -0.408%
COc1ccc(C(CNC(=O)COc2cc(C)cc(C)c2)N2CCOCC2)cc1 (stereo unspecified) -2.9%
O=C1c2ccccc2-c2onc3c(NCCO)cc(NC4CCCCC4)c1c23 -6.74%
Cn1nccc1C(=O)NCc1ccc2c(c1)CCN2C(=O)c1ccc(Cl)cc1 -2.4%
CC(Sc1oc(-c2cccs2)nc1S(=O)(=O)c1ccccc1)c1ccccc1 (stereo unspecified) 1.51%
Cc1c(C(=O)Nc2ccc(F)cc2F)sc2nc3n(c(=O)c12)N=C(c1ccccc1)CS3 -3.79%
CCC(CC)[C@H](NC(C)=O)[C@@H]1[C@H](O)[C@@H](C(=O)O)C[C@@H]1N=C(N)N -21.2%
NC(=O)NN=Cc1ccc([N+](=O)[O-])o1 12.2%
Cc1ccc(NC(=O)CSc2nc(=O)cc(N)n2CCc2ccccc2)cc1 16.3%
CCc1ccccc1NC(=O)C1CCCN(c2cnccn2)C1 (stereo unspecified) 2.6%
O=C(Nc1ccccc1C(F)(F)F)N1CCN(c2ccc3nnc(-c4ccc(F)cc4)n3n2)CC1 -18.8%
CCOc1ccc(CNC(=O)C2Cc3cc(S(=O)(=O)N4CCCCCC4)ccc3N2C(C)=O)cc1 (stereo unspecified) -2.46%
O=C(c1ccc(F)cc1F)N1CCC(c2noc(-c3ccc(S(=O)(=O)N4CCCC4)cc3)n2)CC1 8%
O=C(Nc1nnc(S(=O)(=O)N2CCOCC2)s1)c1ccc(F)cc1 -0.942%
CCOc1ccc(OCC)c(NC(=O)C2CCN(c3cnccn3)CC2)c1 -1.47%
Cn1c(=O)oc2cc(S(=O)(=O)Nc3ccc(O)cc3)ccc21 -2.23%
O=C(C=Cc1c(C(=O)O)[nH]c2cc(Cl)cc(Cl)c12)Nc1ccccc1 -17.2%
CCc1ccc(NC(=O)CN(Cc2ccccc2)S(=O)(=O)c2ccc3nc(C)sc3c2)cc1 -1.77%
CCc1ccc(S(=O)(=O)c2nnn3c2nc(NCc2ccccc2OC)c2cc(Cl)ccc23)cc1 0.872%
Cc1ccc(C)c(N2CCN(C(=O)C(C)n3c(C)c4cnn(-c5ccccc5)c(=O)c4c3C)CC2)c1 (stereo unspecified) 77%
COc1ccc(Cl)cc1N(C)C(=O)C(=O)Nc1ccc2nc3n(c(=O)c2c1)CCCCC3 1.14%
COc1ccc(NC(=O)CSc2nc(-c3ccccc3)nc3c2Cc2c(CO)cnc(C)c2O3)cc1Cl 1.6%
Cc1ccc(N2CCN(C(=O)c3noc4c3COc3ccc(C)cc3-4)CC2)c(C)c1 -8.44%
Cc1ccccc1CSc1nc2cccnc2n1Cc1ccc(C(=O)NCCc2cccs2)cc1 -1.38%
COc1ccccc1C1C=C(c2ccc(Cl)cc2)Nc2nc(-c3ccc(Cl)cc3)nn21 (stereo unspecified) -2.91%
Cc1ccc2oc(=O)n(CCNC(=O)Nc3ccc(C)c(F)c3)c2c1 -1.26%
c1ccc(-c2nn3c(c2-c2ccnc4cc(OCCN5CCOCC5)ccc24)CCC3)nc1 23.4%
Cc1ccc(CNC(=O)c2c(-c3cccc(Br)c3)noc2C)o1 -16.8%
COC(=O)c1ccc(OCC2c3cc(OC)c(OC)cc3CCN2C(=O)c2ccccc2F)cc1 (stereo unspecified) 2.27%
Cc1ccc(C)c(Cn2nc(C)n3c(cc4cc(C)ccc43)c2=O)c1 -2.46%
CC(Nc1ccc(-c2nc(-c3ccccn3)no2)cc1[N+](=O)[O-])c1ccccc1 (stereo unspecified) -6.8%
COc1ccc(Nc2nc(N)nc(CSc3nc4cc(OC)ccc4s3)n2)cc1 9.86%
CC(C)c1nn2c(=O)cc(COC(=O)CNC(=O)c3ccccc3)nc2s1 132%
CCc1ccc(NC(=O)c2cc3c(=O)n(Cc4cccnc4)ccc3nc2C)cc1 1.94%
O=C(O)Cn1nnc(-c2cc(N3CCC(Oc4cc(F)ccc4Br)CC3)no2)n1 1.82%

outcome, inactive:
CCc1ccc(NC(=O)c2nn(-c3ccc(OC)cc3)c(=O)c3c2c2ccccc2n3C)cc1
CCc1ccc(Oc2c(C(F)(F)F)oc3c(CN4CCCC(C)C4)c(O)ccc3c2=O)cc1 (stereo unspecified)
O=C(Nc1cccc(NC(=O)c2ccccc2Cl)c1)c1cccc(Br)c1
O=C(CCn1cnc2onc(-c3ccc(F)cc3)c2c1=O)N1CCN(c2cccc(Cl)c2)CC1
Cc1ccc(NC(=O)Cn2c(-c3nonc3N)nc3ccccc32)cc1Cl
CCC(C(=O)NCCCN(CC)CC)n1ncn2c(cc3occc32)c1=O (stereo unspecified)
N#Cc1cccc(NC(=O)c2ccc3c(c2)N(Cc2cccc(Cl)c2)C(=O)c2ccccc2S3(=O)=O)c1
COc1ccc(C2NC(=O)N(C)C3=C2C(=O)N(c2ccc(C)cc2)C3)cc1 (stereo unspecified)
Cc1ccccc1-c1noc(-c2ccccc2OCC(=O)Nc2ccccc2[N+](=O)[O-])n1
Cc1ccc(CN(C(=O)COc2ccc(Br)cc2)c2ccccn2)o1
O=C(CSCc1cnn(-c2ccccc2)c1-n1cccc1)Nc1ccc(F)cc1F
